Measured values: PubChem BioAssay AID686979 (National Center for Advancing Translational Sciences (NCATS), 2013)
Screen size: about 420,000 compounds; about 50,000 (12%) were called active. Inconclusive means that the source gave no clear call. Such entries were picked first, then a sample of the others. Calls follow the shape of the dose curve; as a rule, active = well fitted inhibition curve with a large enough effect; inconclusive = small, poorly fitted or top-dose-only effect; inactive = flat fitted curve, though single readings scatter. No potency is given beside an inconclusive call; the fits are too rough.

assay: qHTS for Inhibitors of human tyrosyl-DNA phosphodiesterase 1 (TDP1): qHTS in cells in presence of CPT; conditions: chicken DT40 Tdp1-/-;hTDP1 cells + 20 nM CPT, ATP luminescence, 48 h; activity change, negative = growth inhibition: at 46.2 µM (top of the series) unless noted; also: nearly all actives have a fitted effect of over 55% in size
Outline: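 Chicken DT40 Tdp1-/- cells stably complemented with human TDP1 were seeded at 400 cells/well in medium containing 20 nM camptothecin, exposed to pin-transferred compounds, and grown at 37 °C for at least 48 hr. Viability was read as ATP luminescence.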
% is scaled to controls: 0 for no effect and ±100 for the full control effect; potency is read from the fitted curve at half-maximal effect; tags tell the direction and shape of the fitted curve.

Row | SMILES | Potency | activity change, negative = growth inhibition
1 | Cc1ccc(SCCN2CCC(C(C)(C)C)CCC2=O)cc1 (stereo not drawn) | active: 9.2 µM | 
2 | Cc1nn(Cc2ccccc2Cl)c(C)c1NC(=O)c1cc(-c2ccc(F)cc2)on1 | inconclusive [inhibitor, single point] | 
3 | C[C@H](NC(=O)c1nc[nH]c1C(=O)N[C@@H](CCCCNC(=O)OC(C)(C)C)C(=O)OC(C)(C)C)c1ccccc1 | inconclusive [inhibitor, single point] | 
4 | CC1CC2=C(CC1/C=N/NC(N)=S)C(C)(C)CCC2 (stereo not drawn) | active: 4.11 µM | 
5 | Cn1c(N2CCN(S(=O)(=O)c3ccc(F)cc3)CC2)nc2ccccc21 | inconclusive [inhibitor, single point] | 
6 | O=C1c2ccccc2C(c2nnnn2-c2ccc3c(c2)OCCO3)N1C1CC1 (stereo not drawn) |  | inactive: -11.4%
7 | Cc1ccc(Nc2nc(N)nc(CN3CCN(Cc4ccc5c(c4)OCO5)CC3)n2)cc1C | inconclusive [inhibitor, single point] | 
8 | CSc1ncccc1C(=O)N1CCN(S(=O)(=O)c2ccc(C)cc2)CC1 |  | inactive: -1.08%
9 | CC1CCCN(C(=O)COc2ccc(-c3ccccc3)cc2)C1 (stereo not drawn) | inconclusive [inhibitor, single point] | 
10 | CCOC(=O)c1c2c(n(C)c1C)C(=O)C(=O)c1ccc(Br)cc1-2 | active: 1.46 µM | 
11 | Cc1ccc(NS(=O)(=O)c2cccc(C(=O)NC3CCN(Cc4ccccc4)CC3)c2)cc1 | active: 4.11 µM | 
12 | Cc1cc(NC(=O)CCN2CCCCC2)ccc1Br | inconclusive [inhibitor, partial curve] | 
13 | Cc1ccc(NC(=O)NNC(=O)Cn2nc(-c3ccccc3)c(-c3ccccc3)c(C#N)c2=O)cc1 | inconclusive [inhibitor, single point] | 
14 | O=C(NCCCN1CCOCC1)c1cc(-c2cccc(O)c2)on1 |  | inactive: -24.8%
15 | CCC(=O)N(c1ccc(C(=O)O)cc1)c1nc(-c2ccc(OC)cc2)c(C)s1 | inconclusive [inhibitor, single point] | 
16 | Cc1ccc2nc(Cl)c(/C=N/NC(=O)[C@H]3C[C@@H]3c3ccccc3)cc2c1 |  | inactive: -16%
17 | Cc1cc(=O)[nH]c(SCC(=O)Nc2cccc(S(=O)(=O)N3CCOCC3)c2)n1 |  | inactive: 7.31%
18 | Cc1ccc(NC(=O)CN2C(=O)NC3(CCc4ccccc43)C2=O)cc1S(=O)(=O)N1CCCCC1 (stereo not drawn) | inconclusive [inhibitor, single point] | 
19 | Cc1ccccc1C(=O)Nc1c(C(=O)Nc2cccc(F)c2)oc2ccccc12 | inconclusive [inhibitor, single point] | 
20 | CCOc1ccc(N2C(=O)C(CC(=O)Nc3ccc(F)cc3)N(Cc3ccccn3)C2=S)cc1 (stereo not drawn) | inconclusive [inhibitor, partial curve] | 
21 | COc1cc(-c2cnc3c(NC=O)cc(-c4cccc(NC(C)=O)c4)cn23)cc(OC)c1OC | active: 0.517 µM | 
22 | O=C(CCSc1nnc2ccc3ccccc3n12)Nc1ccc(F)cc1 | inconclusive [inhibitor, partial curve, poor fit] | 

Row | SMILES | Potency | activity change, negative = growth inhibition
23 | COc1ccc(CCNc2nc(-c3cccc(NC(C)=O)c3)cs2)cc1OC | inconclusive [inhibitor, single point] | 
24 | COc1ccccc1NC(=O)c1c(Nc2ccccc2C)sc(C(=O)Nc2cccc(Cl)c2)c1N | active: 20.6 µM | 
25 | COc1ccc(/C=C/C(=O)c2cc(C(=O)/C=C/c3ccc(OC)cc3)c(O)cc2O)cc1 | inconclusive [inhibitor, single point] | 
26 | NC(=O)CSc1nc2c(oc3ccccc32)c(=O)n1Cc1ccccc1 | inconclusive [inhibitor, partial curve, poor fit] | 
27 | CCSc1oc(-c2cccs2)nc1S(=O)(=O)c1ccc(Br)cc1 | inconclusive [inhibitor, single point] | 
28 | CC(=O)c1cccc(NC(=O)c2cccc3c(-c4cccc(C(N)=O)c4)coc23)c1 | active: 9.2 µM | 
29 | Cc1ccc2c(CN3CCN(S(=O)(=O)c4ccc5c(c4)OCCO5)CC3)cc(=O)oc2c1C | inconclusive [inhibitor, single point] | 
30 | N/C(=N\OC(=O)CSc1ccccc1)c1ccc([N+](=O)[O-])cc1 | inconclusive [inhibitor, single point] | 
31 | O=[N+]([O-])c1ccc2[nH]c3c(c2c1)CCCC3 | inconclusive [inhibitor, partial curve] | 
32 | CC1(C(=O)NS(=O)(=O)c2ccccc2)CCN1C(=O)C/C=C/c1ccccc1 (stereo not drawn) |  | inactive: -13.3%
33 | O=C(Nc1ccc(F)cc1)C1CCN(c2nnnn2-c2ccccc2)CC1 | inconclusive [inhibitor, partial curve] | 
34 | CC1CCc2ccccc2N1CC(=O)Nc1cccc(S(=O)(=O)N2CCCC2)c1 (stereo not drawn) | active: 16.4 µM | 
35 | CN(C(=O)c1ccc(Br)o1)C1(C)CCS(=O)(=O)C1 (stereo not drawn) |  | inactive: -1.52%
36 | CC1CCCCN1C(=S)Nc1ccc(OC(F)F)cc1 (stereo not drawn) | inconclusive [inhibitor, single point] | 
37 | COC(=O)C1=C(C)N(c2ccc(C)c(C)c2)/C(=C/c2ccco2)C1=O | inconclusive [inhibitor, single point] | 
38 | CCOC(=O)c1c(-c2ccccc2)oc2ccc(N(C(C)=O)S(=O)(=O)c3ccccc3)cc12 | inconclusive [inhibitor, single point] | 
39 | CCN(Cc1ccncc1)Cc1c(O)ccc2ccccc12 | inconclusive [inhibitor, single point] | 
40 | Cc1ccc2nc(-c3ccco3)c(CC3CCCCC3)n2c1 | active: 13 µM | 
41 | CNC(=O)[C@H](C)[C@@H]1C[C@@]1(C)[C@@H](NC(=O)OCc1ccccc1)c1ccccc1 | inconclusive [inhibitor, single point] | 
42 | COC(=O)c1ccc(CSc2cc(C)c3cc(C)cc(C)c3n2)o1 | inconclusive [inhibitor, single point] | 
43 | COc1ccc(CCNC(=O)c2cc(=O)c3cc(C)ccc3o2)cc1OC | inconclusive [inhibitor, single point] | 
